Results taken from PubChem BioAssay AID624417 (National Center for Advancing Translational Sciences (NCATS), 2012).
Among all 410,000 compounds or so, about 6,400 (1.6%) were called active. Inconclusive means that the source gave no clear call. Such entries were picked first, then a sample of the others. Calls come from the whole dose curve; as a rule, active = well fitted inhibition curve with a large enough effect; inconclusive = small, poorly fitted or top-dose-only effect; inactive = no such curve, though single readings can be large or run the other way. Potencies of inconclusive entries are left out as doubtful fits.
% is set by controls: 0 for no effect and ±100 for the full control effect; potency is the fitted concentration of half-maximal effect; tags give direction and shape of the fitted curve.
Note: nearly all actives have a fitted effect of over 55% in size.

Each compound was assayed against Glucagon-like peptide 1 receptor (Homo sapiens) (UniProt P43220) (assay: qHTS of GLP-1 Receptor Inverse Agonists (Inhibition Mode)). Conditions: HEK293 GLP-1R CRE-luciferase, luminescence, 24 h, GLP-1R form is constitutively active; activity change, negative = inhibition: at 38.3 µM (top of the series) unless noted.
UniProt P43220, sequence (P43220 whole entry, looked up): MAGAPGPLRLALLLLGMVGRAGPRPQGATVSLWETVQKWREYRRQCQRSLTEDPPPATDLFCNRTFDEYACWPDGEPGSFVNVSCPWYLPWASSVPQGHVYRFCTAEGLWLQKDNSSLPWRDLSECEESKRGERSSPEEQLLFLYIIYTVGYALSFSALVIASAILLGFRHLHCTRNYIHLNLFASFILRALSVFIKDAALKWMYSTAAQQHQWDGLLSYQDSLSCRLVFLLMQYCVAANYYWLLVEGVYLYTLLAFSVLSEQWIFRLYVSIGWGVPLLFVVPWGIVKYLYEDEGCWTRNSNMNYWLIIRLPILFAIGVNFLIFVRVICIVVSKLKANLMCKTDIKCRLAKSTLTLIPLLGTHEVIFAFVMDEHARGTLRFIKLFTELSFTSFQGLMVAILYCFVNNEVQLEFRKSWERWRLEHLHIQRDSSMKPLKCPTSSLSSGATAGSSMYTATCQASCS
Procedure, shortened: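 Using stably transfected HEK293 (constitutively active GLP-1R, cAMP-luciferase reporter), compounds were incubated 24 hr and luciferase measured by luminescence.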
For `Cn1c(N)c(C(=O)COC(=O)c2ccccc2C(=O)c2ccc(Cl)cc2)c(=O)n(C)c1=O`, the Potency was active: 11.2 µM.
`Cc1cc(NC(=O)c2ccccc2)n(C(C)(C)C)n1` was tested, and the Potency was “inactive”.
`Cc1onc(-c2c(Cl)cccc2Cl)c1C(=O)Nc1ccc2c(c1)OCCO2` was tested, and the Potency was inconclusive [inhibitor, partial curve, poor fit].
For `O=C(c1cccnc1)N1CCC2CC1c1c(Cl)cccc12` (stereo not given), the Potency was “inactive”.
With `O=C(c1cc(-c2ccccc2Cl)nc2ccc(Br)cc12)N1CCN(c2ccccn2)CC1` the Potency was inconclusive [inhibitor, partial curve, poor fit].
For `O=c1c2ccccc2sn1-c1ccccc1`, the Potency was active: 10 µM.
For `O=S(=O)(c1ccc(Cl)cc1)N1CCN=C1SCc1cccc(Cl)c1`, the Potency was inconclusive [inhibitor, single point].
For `CCc1ccc(NC(=O)N2CC(C)Oc3ccc(C)cc32)cc1` (stereo not given), the Potency was inconclusive [inhibitor, partial curve, poor fit].
For `COCCCNc1ncnc2c1cnn2-c1ccc(F)cc1`, the Potency was inconclusive [inhibitor, partial curve, poor fit].
In the case of `O=C(CSc1ccc(-c2ccc(F)cc2)nn1)N1CCCCC1`, the Potency is reported as “inactive”.
In the case of `C/C(=N\NC(N)=S)C1(C)CCCCC1`, the Potency is reported as inconclusive [inhibitor, full curve, poor fit].
In the case of `CCOC(=O)c1ccc(NC(=O)CC2C(=O)N(c3ccc(F)cc3)C(=O)N2Cc2ccc3c(c2)OCO3)cc1` (stereo not given), the Potency is reported as inconclusive [inhibitor, single point].
`O=C(COc1ccc(F)c(Cl)c1)N1CCCCCCC1` was tested, and the Potency was inconclusive [inhibitor, single point].
With `CC(Nc1nc(-c2cccc(Br)c2)cs1)c1nc2cc(Cl)c(N3CCCCC3)cc2n1CCOCCO` (stereo not given) the Potency was inconclusive [inhibitor, single point].
In the case of `Cc1[nH]nc(Nc2ccc(C(C)C)cc2)c1[N+](=O)[O-]`, the Potency is reported as inconclusive [inhibitor, single point].
With `CCn1c(=O)c(C(=O)Nc2ncccc2C)c(O)c2ccccc21` the Potency was inconclusive [inhibitor, single point].
With `COC(=O)Cn1nc(-c2ccc(C)cc2)c2ccccc2c1=O` the Potency was inconclusive [inhibitor, single point].
In the case of `CN(CC(=O)Nc1cccc(F)c1)C(=O)c1ccc(N2CCCCCC2)c([N+](=O)[O-])c1`, the Potency is reported as inconclusive [inhibitor, partial curve, poor fit].
For `CCN(C[C@H]1N[C@@](C)(C(=O)OC)[C@H]2C(=O)N(C)C(=O)[C@@H]12)C(=O)Nc1ccc(Cl)cc1`, the Potency was “inactive”.
With `O=c1c2ccccc2[nH]c(=S)n1C1CCCCC1` the Potency was “inactive”.
In the case of `Cn1cc(CN2CCN(c3ncccn3)CC2)c(-c2cccc(Cl)c2)n1`, the activity change, negative = inhibition is reported as inactive: -12.8% [at 7.66 µM].
For `COc1ccc(NC(=O)CC2C(=O)N(c3ccc(OC)cc3)C(=S)N2NC(=O)c2cccc(F)c2)cc1` (stereo not given), the Potency was inconclusive [inhibitor, partial curve, poor fit].
With `O=C(Oc1cccc(NC(=O)c2ccco2)c1)c1ccc(Br)c(S(=O)(=O)N2CCCCC2)c1` the Potency was inconclusive [inhibitor, single point].
In the case of `Cc1ccc(C2/C=C\CC(NC(=O)OCC3c4ccccc4-c4ccccc43)CC(=O)N2Cc2ccccc2)cc1` (stereo not given), the Potency is reported as inconclusive [inhibitor, partial curve, poor fit].
With `O=C(COC(=O)Cn1cnc2ccccc21)Nc1ccc2c(c1)C(=O)c1ccccc1C2=O` the Potency was “inactive”.
In the case of `COc1cc2c(cc1OC)C1C/C(=N\O)C(CC(C)C)CN1CC2` (stereo not given), the Potency is reported as “inactive”.
With `O=C(Nc1nc2ccc(F)cc2s1)c1nc(S(=O)(=O)Cc2ccccc2)ncc1Cl` the Potency was inconclusive [inhibitor, single point].
With `O=C(Nc1ccccc1N1CCCC1)C1CCN(S(=O)(=O)c2ccccc2C(F)(F)F)CC1` the Potency was inconclusive [inhibitor, partial curve, poor fit].
With `Cc1ccc2[nH]c(CCN(C)C)c(CN3CCOCC3)c2c1` the Potency was “inactive”.
`COc1ccc2sc(N(CCCN(C)C)C(=O)c3ccc(S(=O)(=O)N(C)C4CCCCC4)cc3)nc2c1` was tested, and the Potency was inconclusive [inhibitor, single point].
`CC1CCc2c(sc3nc(C(C)(C)C)nc(N4CCN(C(=O)CCl)CC4)c23)C1` (stereo not given) was tested, and the Potency was inconclusive [inhibitor, single point].
With `COc1cc2cc(C#N)c(SCC(=O)N3CCOCC3)nc2cc1OC` the Potency was “inactive”.
For `Cc1ccc(CN2CCN(/N=C/c3cc(Br)ccc3O)CC2)cc1`, the Potency was “inactive”.
In the case of `CCC(C)NC(=O)C(=O)Nc1c2c(nn1-c1ccccc1)CS(=O)(=O)C2` (stereo not given), the Potency is reported as “inactive”.
With `COCCN=C1Sc2nc3ccc(C)cc3cc2CN1Cc1cccs1` the Potency was inconclusive [inhibitor, partial curve, poor fit].
For `CC(C)CSc1oc(-c2ccco2)nc1S(=O)(=O)c1ccccc1`, the Potency was inconclusive [inhibitor, single point].
For `NC(=O)c1ccccc1N=Cc1ccc2ccccc2c1`, the Potency was inconclusive [inhibitor, single point].
`O=C(c1ccc(-n2c(SCc3cccc(F)c3)nc3ccccc3c2=O)cc1)N1CCOCC1` was tested, and the Potency was inconclusive [inhibitor, partial curve, poor fit].
For `Cc1ccc2nc(NC(=O)CSCC(=O)OCC(=O)c3ccccc3)sc2c1`, the Potency was inconclusive [inhibitor, partial curve].
For `O=C(c1ccc(S(=O)(=O)c2ccccc2Cl)c([N+](=O)[O-])c1)N1CCN(Cc2ccccc2)CC1`, the Potency was inconclusive [inhibitor, partial curve, poor fit].
In the case of `CCOC(=O)C1CCN(C(=O)C2CCN(C3=NS(=O)(=O)C(c4ccc(C)c(C)c4)=C3C)CC2)CC1`, the Potency is reported as “inactive”.
For `CC(=O)c1ccccc1NC(=O)COC(=O)/C(=C/c1ccccc1)n1nnnc1C`, the Potency was inconclusive [inhibitor, single point].
With `COc1cccc(-c2nn(-c3ccc(F)cc3)cc2C(=O)NCC2CCCO2)c1` (stereo not given) the Potency was inconclusive [inhibitor, partial curve].
In the case of `COCCN(CCOC)S(=O)(=O)c1ccc(C(=O)Nc2nnc(C3CC3)o2)cc1`, the Potency is reported as “inactive”.
With `Cc1cccc(OCC(=O)Nc2ccc3c(c2)nc(CCN2CCCCC2)n3C)c1` the Potency was inconclusive [inhibitor, single point].
In the case of `O=C(Nc1cccc(S(=O)(=O)N2CCCCC2)c1)Nc1ccc(Cl)cc1Cl`, the Potency is reported as active: 3.55 µM.
For `Cc1ccc(S(=O)(=O)Nc2ccc(N=Nc3ccc(O)cc3)cc2)cc1`, the Potency was inconclusive [inhibitor, partial curve].
For `CCOc1ccccc1OCCOCCOc1c(Cl)cccc1Cl`, the Potency was inconclusive [inhibitor, single point].
For `CCOC(=O)N/N=C\c1ccc(OC/C=C/c2ccccc2)cc1`, the Potency was “inactive”.
In the case of `Cc1ccc(C(=O)NNc2cc(N3CCCC3)nc(N3CCCC3)n2)cc1`, the Potency is reported as inconclusive [inhibitor, single point].
With `COc1ccc2cc(C3=CCCCC3)ncc2c1` the Potency was “inactive”.
`CC(C)c1ccc(OCC(O)CNC(C)c2ccccc2)cc1` (stereo not given) was tested, and the activity change, negative = inhibition was inconclusive: -101% [inhibitor].
With `O=c1c(C/C=C/c2ccccc2)c(O)ccn1Cc1cccc(Cl)c1` the Potency was inconclusive [inhibitor, single point].
`Cc1cc(C)cc(N(CC(=O)NC2CCCC2)C(=O)CCC(=O)Nc2nc(C)cs2)c1` was tested, and the Potency was inconclusive [inhibitor, single point].
With `CSc1ncc(Cl)c(C(=O)N(Cc2ccc(N(C)C)cc2)Cc2ccco2)n1` the Potency was inconclusive [inhibitor, partial curve, poor fit].
For `Cc1ccc(C(=O)N2CCN(c3cccc(C)c3C)CC2)o1`, the Potency was inconclusive [inhibitor, partial curve, poor fit].
`C(=C\c1nc(N2CCCCCC2)c2ccccc2n1)/c1ccccc1` was tested, and the Potency was inconclusive [inhibitor, single point].
With `Cc1c(C)n(C)c2ccc(C(=O)N3CCN(c4ccccc4)CC3)cc12` the Potency was inconclusive [inhibitor, single point].
In the case of `Cc1c(Cl)cccc1NC(=O)C(C)n1nnc2sc3c(c2c1=O)CCCC3` (stereo not given), the Potency is reported as “inactive”.
For `Cc1cc(C)c2sc(NNC(=O)c3ccc(S(=O)(=O)N4CCc5ccccc5C4)cc3)nc2c1`, the Potency was inconclusive [inhibitor, single point].
In the case of `CCCCOc1ccc(CNC(=O)CCCN2C(=O)CSc3c2c(C)nn3-c2ccccc2)cc1`, the Potency is reported as inconclusive [inhibitor, partial curve, poor fit].
For `CCOC(=O)[C@]12CCCC=C1N(Cc1ccc3c(c1)OCO3)C(=O)[C@H](CC(=O)NCc1cccc(C(F)(F)F)c1)C2`, the Potency was inconclusive [inhibitor, single point].
With `COc1ccc(-c2ccc(CCC(=O)O)n2-c2ccccc2OC)cc1` the Potency was inconclusive [inhibitor, single point].
For `O=C(Oc1c(CN2CCOCC2)cc(Cl)c2cccnc12)c1ccccc1F`, the Potency was inconclusive [inhibitor, full curve, poor fit].
For `O=S(=O)(Cc1ccc(Cl)cc1)Nc1ccc2c(c1)OCO2`, the Potency was inconclusive [inhibitor, single point].
